# Results from PubChem BioAssay AID1347428 (National Center for Advancing Translational Sciences (NCATS), 2020).
# Among all 91,000 compounds or so, about 290 (0.32%) were called active. Inconclusive means that the source gave no clear call. Such entries were picked first, then a sample of the others. Calls come from the whole dose curve; as a rule, active = well fitted inhibition curve with a large enough effect; inconclusive = small, poorly fitted or top-dose-only effect; inactive = no such curve, though single readings can be large or run the other way. Potencies of inconclusive entries are doubtful fits and often do not repeat.
# Molecular target: Single-stranded DNA cytosine deaminase (Homo sapiens) (UniProt Q9GZX7)
# Chain of UniProt Q9GZX7 (Q9GZX7 whole entry, looked up): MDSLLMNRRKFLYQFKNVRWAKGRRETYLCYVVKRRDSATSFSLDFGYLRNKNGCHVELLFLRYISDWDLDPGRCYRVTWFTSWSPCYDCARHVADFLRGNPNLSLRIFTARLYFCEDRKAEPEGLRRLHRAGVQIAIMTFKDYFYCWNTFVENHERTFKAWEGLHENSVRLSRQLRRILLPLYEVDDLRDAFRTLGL
# Assay: Primary qHTS assay for inhibitors of Activation Induced Cytidine Deaminase (AID): AID signal; note: nearly all actives have a fitted effect of over 25% in size
# Details: AID deamination FRET fluorescence, UDG-coupled, 4 h; activity change, negative = inhibition: at 115 µM (top of the series)
# % is set by controls: 0 for no effect and ±100 for the full control effect; potency is the fitted concentration of half-maximal effect; tags give direction and shape of the fitted curve.
Compound,Potency,"activity change, negative = inhibition"
COc1cc(OC)cc(C(=O)NCCc2csc(-c3cccc(C)c3)n2)c1,"inconclusive: 89.1 µM [inhibitor, partial curve, poor fit]",
CC1CCCCN1C(=O)c1ccc2c(c1)N(Cc1ccc(Cl)cc1)C(=O)c1ccccc1S2=O (stereo not drawn),"inconclusive: 31.6 µM [inhibitor, full curve]",
CCOC(=O)CNC(=O)c1cc(-c2ccc(C)s2)nc2ccccc12,,inactive: 1.04%
COc1ccc(C(=O)Nc2cnc3c(cnn3C(C)C)c2)cc1S(=O)(=O)N1CCCC1,,inactive: 0.26%
COc1ccc2c(CNCc3ccco3)c(C(=O)O)n(Cc3ccc(F)cc3Cl)c2c1,"inconclusive: 50.1 µM [inhibitor, partial curve, poor fit]",
Clc1ccc(-n2ncc3c(NC4CCCCCCCCCCC4)ncnc32)cc1,,inactive: -0.77%
Cc1cc(C(=O)N2CCN(S(=O)(=O)c3ccccc3Cl)CC2)c(C)n1Cc1cccs1,"inconclusive: 14.1 µM [inhibitor, full curve, poor fit]",
COc1ccc(C)cc1NC(=O)C1CCCN(S(=O)(=O)c2ccc3c(c2)CCCN3C(C)=O)C1 (stereo not drawn),"inconclusive: 44.7 µM [inhibitor, partial curve, poor fit]",
CCc1nn2c(-c3ccccc3OC)ccnc2c1-c1ccccc1,"inconclusive: 56.2 µM [inhibitor, partial curve, poor fit]",
CCCc1nn2c(=O)cc(COC(=O)c3cccc(NC(=O)c4cccs4)c3)nc2s1,"inconclusive: 50.1 µM [inhibitor, partial curve, poor fit]",
COc1cccc(Cn2c(=O)cc(C)c3c(C)nn(C)c32)c1,"inconclusive: 20 µM [inhibitor, partial curve]",
CCC1CN(S(=O)(=O)c2cc(-c3cc(C)no3)ccc2C)c2cc(Cl)ccc2O1 (stereo not drawn),"inconclusive: 50.1 µM [inhibitor, partial curve, poor fit]",
CCC(=O)Nc1ccc(-c2csc(Nc3ccc(OC)cc3)n2)cc1,,inactive: 3.42%
Cc1nc2cc(NC(=O)C3CC(=O)N(c4cccc(Br)c4)C3)ccc2o1 (stereo not drawn),,inactive: -1.32%
COc1cc2c(=O)c(C(=O)c3ccc(C)c(C)c3)cn(Cc3ccc(F)cc3)c2cc1OC,active: 44.7 µM,
CC(C)c1ccc(NC(=O)C2CCN(S(=O)(=O)c3cccc4nonc34)CC2)cc1,,inactive: 20.9%
Cc1cccc(C(=O)N2CCc3cc(CNC(=O)COc4ccc(Cl)cc4)ccc32)c1,"inconclusive: 56.2 µM [inhibitor, partial curve, poor fit]",
CCOc1cccc(C2c3[nH]c4ccccc4c3CCN2C(=O)CSc2ccccc2)c1 (stereo not drawn),"inconclusive: 50.1 µM [inhibitor, partial curve, poor fit]",
CCOC(=O)c1ccc(-c2ccc(/C=C/C(=O)c3ccccc3)o2)cc1,,inactive: -5.04%
Cc1occc1-c1nnc(SCc2cc3c(cc2Br)OCCO3)n1C,,inactive: -7.98%
O=c1c2ccccc2c(-c2ccccc2)nn1-c1cc(N2CCNCC2)ccc1[N+](=O)[O-],,inactive: -29.3%

Compound,Potency,"activity change, negative = inhibition"
Cc1nc(N2CCCC2)c2c(C(=O)N3CCN(c4cc(Cl)ccc4C)CC3)c(C)oc2n1,"inconclusive: 70.8 µM [inhibitor, partial curve]",
Cc1ccc(C(=O)c2cn(Cc3ccccc3)c3nc(C)ccc3c2=O)cc1,"inconclusive: 79.4 µM [inhibitor, partial curve, poor fit]",
Cc1cccc(N(CC(=O)NCCSCc2ccccc2)S(=O)(=O)c2ccccc2)c1C,"inconclusive: 11.2 µM [inhibitor, full curve, poor fit]",
CCCCN(C)C(=O)c1ccc2c(c1)N(Cc1cccc(F)c1)C(=O)c1ccccc1S2,"inconclusive: 15.8 µM [inhibitor, full curve, poor fit]",
Clc1ccc(-n2c(Cc3ccccc3)nnc2SCc2nc(-c3cccs3)no2)cc1,"inconclusive: 28.2 µM [inhibitor, full curve]",
Cc1ccc(S(=O)(=O)c2nc(-c3ccc(F)cc3)oc2N2CCN(c3ccccc3)CC2)cc1,"inconclusive: 2.82 µM [inhibitor, full curve, poor fit]",
CCN(CC)c1ccc(C2Nc3ccccc3-c3cc(C)nn32)cc1 (stereo not drawn),"inconclusive: 22.4 µM [inhibitor, full curve, poor fit]",
Cc1ccc(CNc2ccc3cc(S(=O)(=O)N4CCCCC4)ccc3n2)cc1,"inconclusive: 11.2 µM [inhibitor, full curve, poor fit]",
COc1ccccc1Nc1ncnc2scc(-c3ccc(F)cc3)c12,"inconclusive: 35.5 µM [inhibitor, full curve, poor fit]",
Nc1c(S(=O)(=O)O)cc(Nc2ccc(Nc3nc(Cl)nc(Nc4ccc(S(=O)(=O)O)cc4)n3)c(S(=O)(=O)O)c2)c2c1C(=O)c1ccccc1C2=O,active: 22.4 µM,
COc1ccc(NC(=O)CC2Nc3ccccc3NC2=O)cc1 (stereo not drawn),,inactive: -3.48%
Cc1ccc(N(Cc2cccs2)C(=O)c2ccco2)cc1,"inconclusive: 79.4 µM [inhibitor, partial curve, poor fit]",
CCOC(=O)c1cccc(NC(=O)c2cc3sccc3n2Cc2ccc(Cl)cc2)c1,"inconclusive: 10 µM [inhibitor, full curve, poor fit]",
Cc1cc(Nc2ccc(C)c(Cl)c2)n2nc(Cc3ccccc3)nc2n1,"inconclusive: 39.8 µM [inhibitor, partial curve, poor fit]",
Cc1ccc(S(=O)(=O)Cc2ccc(C(=O)N3CCN(c4cccc(C)c4C)CC3)o2)cc1,"inconclusive: 39.8 µM [inhibitor, partial curve]",
Cc1noc(C)c1S(=O)(=O)N(C)CC(=O)Nc1ccccc1C(C)C,,inactive: 2.3%
CN(Cc1ccco1)C(=O)c1ccc2c(c1)N(Cc1ccccc1F)C(=O)c1ccccc1S2,"inconclusive: 79.4 µM [inhibitor, partial curve, poor fit]",
CN(Cc1ccc2c(c1)OCO2)C(=O)c1nn(-c2ccccc2)c(=O)c2ccccc12,,inactive: 0.376%
CCC1CN(C(=O)N2CCC(C(=O)N3CCN(c4cccc(C)c4C)CC3)CC2)c2ccccc2O1 (stereo not drawn),"inconclusive: 39.8 µM [inhibitor, full curve, poor fit]",
Cc1ccc(Cl)cc1NC(=O)CCC(=O)N1CC(C)Sc2ccccc21 (stereo not drawn),"inconclusive: 79.4 µM [inhibitor, single point]",
O=C(NCCCc1ccccc1)c1cc(-c2ccncc2)nc2ccccc12,,inactive: -6.99%

Compound,Potency,"activity change, negative = inhibition"
COc1cccc(CNC2CCCCCC2)c1OC,,inactive: 4.65%
Cc1ccc2c3cc(-c4ccccc4)cn3ccn12,,inactive: 13.4%
Cc1ccc(-c2cc(C(=O)NC3CC3)c3ccccc3n2)o1,,inactive: 14%
c1cncc(-c2nc(Oc3cccc4ccccc34)c3ccccc3n2)c1,"inconclusive: 44.7 µM [inhibitor, partial curve, poor fit]",
COc1ccc(N2CCN(C(=O)c3cc4c(-c5ccccc5F)nn(C)c4s3)CC2)cc1,"inconclusive: 70.8 µM [inhibitor, partial curve, poor fit]",
COC(CN(C)C(=S)NCC(=O)O)OC,,inactive: 5.35%
COc1ccc(C(CC(=O)Nc2ccc(F)c(Cl)c2)N2Cc3ccccc3C2=O)cc1OC (stereo not drawn),"inconclusive: 31.6 µM [inhibitor, partial curve, poor fit]",
O=C(/C=C/c1ccco1)OCC(=O)C12CC3CC(CC(C3)C1)C2,,inactive: -6.41%
Cc1ccc(Nc2nc(N(C)C)nc3nccnc23)c(C)c1,"inconclusive: 63.1 µM [inhibitor, partial curve, poor fit]",
CCCCCCN(CCCCCC)C(=O)Cc1c(-c2ccc(F)cc2)[nH]c2ccccc12,"inconclusive: 20 µM [inhibitor, partial curve, poor fit]",
Cc1[nH]n2c(=O)cc(-c3ccccc3Cl)nc2c1-c1ccccc1,"inconclusive: 50.1 µM [inhibitor, partial curve, poor fit]",
CCCN(c1ccc(OCC)cc1)c1nc(C(=O)OCC)nc2ccccc12,"inconclusive: 79.4 µM [inhibitor, partial curve, poor fit]",
Cc1cc(OCC(=O)OCCOc2ccccc2)ccc1Cl,,inactive: -3.49%
COc1cc(NC(=O)c2nnn(Cc3ccc(F)cc3)c2N)cc(OC)c1,"inconclusive: 39.8 µM [inhibitor, single point]",
CCOc1ccc(CCNC(=O)c2ccc3c(c2)c(C)c(C)n3C)cc1,"inconclusive: 89.1 µM [inhibitor, partial curve, poor fit]",
CCOC(=O)c1cnn(-c2ccc(OC)cc2)c1C1CCN(C(=O)OC(C)(C)C)CC1,"inconclusive: 50.1 µM [inhibitor, partial curve, poor fit]",
Cc1cc(C)c2oc(-c3ccc(NC(=O)c4cc(Br)ccc4Cl)cc3)nc2c1,"inconclusive: 7.08 µM [inhibitor, full curve, poor fit]",
Cc1cccc(N2CCN(c3ncnc4onc(-c5ccc(F)cc5)c34)CC2C)c1 (stereo not drawn),"inconclusive: 20 µM [inhibitor, full curve, poor fit]",
Cc1ccc2c(=O)cc(C(=O)Nc3ccc(S(=O)(=O)N4CCCCC4)cc3)oc2c1C,"inconclusive: 20 µM [inhibitor, single point]",
CCc1cccc(NC(=O)Cn2c(C(=O)OC)cc3occc32)c1,"inconclusive: 89.1 µM [inhibitor, partial curve, poor fit]",
O=C(Cn1ncc2c3ccccc3n(Cc3ccccc3)c2c1=O)N1CCCCCC1,"inconclusive: 22.4 µM [inhibitor, full curve, poor fit]",
